Reference: PubChem BioAssay AID1963576 (National Center for Advancing Translational Sciences (NCATS), 2024)
The whole screen tested about 46,000 compounds, of which about 60 (0.1%) were called active. Roughly 3% stayed inconclusive and do not appear here. Calls come from the whole dose curve; as a rule, active = well fitted inhibition curve with a large enough effect; inconclusive = small, poorly fitted or top-dose-only effect; inactive = no such curve, though single readings can be large or run the other way. The list shows a part of the results.

Experiment: Primary qHTS assay for Inhibitors of ovarian cancer metastasis using an organotypic tumor microenvironment (TME) model.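 For activity change, negative = inhibition: plate controls were DMSO wells for no effect and tomatine positive control wells for full effect.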 Note: nearly all actives have a fitted effect of over 65% in size.
Details: SKOV3ip1-GFP adhesion/invasion on 3D omental model, fluorescence; series mostly up to 45.8 µM; activity change, negative = inhibition: at the top concentration
Outline: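 qHTS, 4-pt dose (0.36-46 umol/L); SKOV3ip1-GFP, 1,200 cells/well, no FBS; primary omental fibroblast/mesothelial co-culture 48 h pre-grown; 2 h RT + 16 h 37 C; PBS wash, 4% PFA; GFP count 488/509 nm.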

Activity change, negative = inhibition, inactive:
O=C(CCc1ccccc1)NCCc1csc(-c2cccc(F)c2)n1 -4.61%
COc1ccc(NC(=O)c2ccc3c(c2)c(C)c(C)n3Cc2ccc(F)cc2)cc1 -3.56%
CCN1CCN(Cc2nc3cc(NC(=O)c4ccccc4[N+](=O)[O-])ccc3n2CC)CC1 -6.04%
Cc1cc(C)c2c(-n3cccc3)c(C(=O)NCCCN3CCCCC3)sc2n1 5.74%
COc1cccc(CNC(=O)C(C)n2ccc3cc(S(=O)(=O)N4CCCCCC4)ccc32)c1 (stereo not drawn) -14.8%
Cc1ccccc1OCCSc1nc(C)c(Cc2ccccc2)c(=O)[nH]1 -6.11%
Cc1cccc2c1-c1sc(C(=O)NCCc3ccc(Cl)cc3)cc1CO2 -23.8%
Cc1ccc(-c2[nH]c3ccccc3c2SCCNC(=O)c2ccc(S(=O)(=O)N3CCOCC3)cc2)cc1 -9.9%
COc1ccccc1-c1cc(NC(=O)COc2ccccc2Cl)n(-c2ccccc2)n1 6.69%
Cc1c(C(=O)OC2CCCC2)[nH]c2c1C(=O)CC(c1ccc(C(C)(C)C)cc1)C2 (stereo not drawn) 10.4%
CC(C)(C)C1CCc2c(sc(NC(=O)c3cccc(Cl)c3)c2C(N)=O)C1 (stereo not drawn) -19.8%
CC1CCN(C(=O)c2cnn(-c3ccc(Cl)cc3)c2C2CCN(C(=O)OC(C)(C)C)CC2)CC1 -4.91%
Cc1ccc(-c2nc3sccn3c2Nc2ccccc2C)cc1 4%
COc1cccc(CNC(=O)CN2C(=O)CSc3ccc(S(=O)(=O)N(C)C)cc32)c1 37.7%
Cc1cccc(N2CCN(C(=O)c3nn(C)c4c3CSc3ccccc3-4)CC2C)c1 (stereo not drawn) -15.2%
CCC(=O)Oc1c(Sc2ccc(Cl)cc2)c(C)nn1C(C)(C)C 0.314%
COc1ccc(NC(=O)CSc2oc(-c3ccc(C)cc3)nc2S(=O)(=O)c2ccc(C)cc2)c(OC)c1 -13%
Cc1cc2c(cc3c(SCc4ccc(Cl)cc4)nnc(C)n32)o1 4.4%
CSCCC(NS(=O)(=O)c1ccc2c(c1)oc(=O)n2C)C(=O)N1CCN(c2cc(Cl)ccc2C)CC1 (stereo not drawn) -17.9%
Cc1ccc(CSC2=Nc3ccccc3C3=NC(CC(=O)NC4CCCCC4)C(=O)N23)c(C)c1 (stereo not drawn) -3.93%
CCC(C)NC(=O)c1cn(CC)c2ccc(S(=O)(=O)N3CCCCC3)cc2c1=O (stereo not drawn) 7.07%
CC1=C(c2ccc(C)cc2)S(=O)(=O)N=C1N1CCN(c2ccccc2)CC1 -2.39%
Cc1ccc2nc(-c3ccncc3)c(Nc3ccccc3C)n2c1 -30.1%
CNC(=O)c1cccc(-c2ccc3c(N4CCOC[C@H]4C)nc(N4CCOC[C@H]4C)nc3n2)c1 -16.9%
CCN1CCN(Cc2c(O)ccc3oc(C)c(C(=O)Nc4ccc(OC)c(Cl)c4)c23)CC1 3.84%
CCOC(=O)c1ccccc1NC(=O)CSc1nc2ncccc2o1 16%
Cc1cn(C)c(CC(=O)NCc2ccc(F)cc2)c1C(=O)O 1.85%
CNS(=O)(=O)c1cn(CC(=O)N2CCN(c3ccc(OC)cc3)CC2)cc1S(=O)(=O)NC 9.75%
O=C(COc1ccccc1)N(Cc1cccnc1)c1nc2ccc(Cl)cc2s1 -8.58%
Cc1cccc(-c2nc3c4ccccc4nc(NCc4ccccc4Cl)n3n2)c1 11.5%
Cc1ccc(C(NC(=O)Cc2cccs2)C(=O)Nc2ccc(C(C)C)cc2)cc1 (stereo not drawn) 10.1%
CN(Cc1ccccc1)S(=O)(=O)c1ccc(F)c(C(=O)Nc2ccccc2C(F)(F)F)c1 0.0942%
Cc1cc(Nc2cccc(C(F)(F)F)c2)ncn1 8.78%
Cc1ccc(NS(=O)(=O)c2ccc3c4c(cccc24)C(=O)N3)c(C)c1 19.3%
CCOC(=O)c1c(NC(=O)C(C)Sc2cn(CCNC(=O)c3ccc(OC)c(OC)c3)c3ccccc23)sc2c1CCC2 (stereo not drawn) 1.68%
CCOCCCn1c(=N)c(S(=O)(=O)c2ccc(C)cc2)cc2c(=O)n3ccccc3nc21 8.59%
COc1ccc(CC(=O)NC2CC(=O)N(c3ccc4c(c3)OCCO4)C2)cc1 (stereo not drawn) -0.707%
CCOCCCn1c(=N)c(C(=O)NCc2ccco2)cc2c(=O)n3ccccc3nc21 -17.3%
CCN1CCN(Cc2c(O)ccc3c(=O)c(Oc4ccccc4Cl)c(C(F)(F)F)oc23)CC1 14.9%
CCOC(=O)c1c(C)oc2nc(C)nc(NCc3ccc(C)cc3)c12 2.69%
O=C(CSc1nncn2c1cc1sccc12)Nc1ccccc1C(F)(F)F -3.28%
Cc1c(NC(=O)c2cc(-c3cccc(Cl)c3)on2)c(=O)n(-c2ccccc2)n1C 4.23%
COc1ccc2nc3sc(C(=O)Nc4cc(Cl)c(OC)cc4OC)cc3cc2c1 0.395%
Cc1ccccc1C(=O)NCC(c1cccnc1)N1CCc2ccccc21 (stereo not drawn) 1.7%
COc1ccc(N(C(=O)COc2c(C)cccc2C)S(=O)(=O)c2ccc(Cl)cc2)cc1 3.58%
Cc1cccc(N2CCN(S(=O)(=O)c3ccc4oc(=O)c5ncn(C)c5c4c3)CC2C)c1 (stereo not drawn) 1.41%
COC(=O)c1ccccc1NC(=O)c1cc2nc(-c3ccccc3)cc(-c3ccccc3)n2n1 -0.437%
COc1cc(NC(=O)CSc2nc(C)c(C(=O)Nc3ccccc3)c(-c3ccc(OC)c(OC)c3)c2C#N)c(OC)cc1Cl 13.4%
O=C1CC(=O)Nc2cc(S(=O)(=O)N3CCOc4ccccc43)ccc2N1 -3.52%
Cc1ccc(Cl)cc1N1CCN(CCCNc2ncnc3onc(-c4ccc(F)cc4)c23)CC1 -4.21%
Cc1ccc(-c2nnc(Nc3ccc(O)cc3)c3ccccc23)cc1S(=O)(=O)NCc1nc2ccccc2[nH]1 15.9%
COc1cccc(N2CCN(C(=O)c3c(C)oc4ncnc(N5CCCCC5)c34)CC2)c1 0.652%
O=C(CCNS(=O)(=O)c1ccc2c(c1)CCN2C(=O)C1CC1)N1CCN(c2ccccc2F)CC1 -2.27%
CCOc1ccc(CNC(=O)c2cnc3sc(N(CC)CC)nn3c2=O)cc1OC 6.23%
O=C(Cn1c(=O)n(-c2ccccc2Cl)c(=O)c2sc3ccccc3c21)N1CCCC1 -4.92%
CCCn1c(CCC(=O)Nc2cc(Cl)c(OC)cc2OC)nc2cccnc21 1.54%
O=C(CCSCc1ccccc1Cl)N1CCN(c2cccc(Cl)c2)CC1 0.159%
CC(=O)OC(COc1ccccc1)Cn1cnc2cc(C)c(C)cc21 (stereo not drawn) 0.597%
COc1ccc(-n2ccn(Cc3ccccc3Cl)c(=O)c2=O)cc1OC 7.97%
COc1cc(CNc2ccc3[nH]c(=O)[nH]c3c2)ccc1OCc1ccccc1F -2.17%
CCN(C(=O)CSc1nc2ccccc2n1CC(=O)Nc1ccccc1C)c1ccccc1 2.23%
Cc1ccc(NC(=O)CSc2nc3nccnc3c(=O)n2CCc2c[nH]c3ccccc23)cc1 -1.33%
Nc1cccc2c1CN(C1CCC(=O)NC1=O)C2=O (stereo not drawn) -1.27% [at 92.2 µM]
O=C1NC(=O)C(c2cnc3ccccn23)=C1c1cn2c3c(cccc13)CN(C(=O)N1CCOCC1)CC2 -12.1%
CC(C)N(Cc1ccccc1)C(=O)CN1C(=O)COc2ccc(S(=O)(=O)NC3CCCC3)cc21 9.66%
CCOC(=O)c1cc2c(=O)n3ccccc3nc2n(CCCOC)c1=NC(=O)C(C)(C)Oc1ccc(Cl)cc1 2.82%
COc1ccc(Cl)cc1NC(=O)CSc1ccc(-c2sc(C)nc2C)nn1 -3.72%
CCN(CC)S(=O)(=O)c1ccc(NC(=O)CCc2c(C)nc3cc(-c4ccc(Cl)cc4)nn3c2C)cc1 -8.02%
CN(C)c1ccc(C(CNS(=O)(=O)c2ccc(Br)cc2)N2CCCC2)cc1 (stereo not drawn) -10.1%
CCOc1ccc(C2CC(=O)n3nc(-c4ccc(C)cc4)nc3S2)cc1 (stereo not drawn) 0.082%

outcome, inactive:
Cc1ccc(C)c(NC(=O)C2CCN(c3nn4c(=O)cc(C)nc4s3)CC2)c1
COc1ccc(-c2nn(C)c3sc(C(=O)N4CCN(c5ccccc5F)CC4)cc23)cc1OC
CCN(CCCNC(=O)c1cc2cc3cc(OC)ccc3nc2s1)c1cccc(C)c1
Cc1cc(C)cc(NC(=O)CN2C(=O)COc3ccc(S(=O)(=O)Nc4ccccc4)cc32)c1
COc1ccc2c(c1)c1c(c(=O)n(-c3cccc(C)c3)c(=O)n1CC(=O)Nc1c(C)cc(C)cc1C)n2C
CCc1cccc(NC(=O)CNS(=O)(=O)c2ccc3nc(C)sc3c2)c1
CCn1cc(C(=O)NCc2ccccc2)c(=O)c2cc(S(=O)(=O)N3CCCCC3)ccc21
CC(C)NC(=O)c1ccc(Cn2c(=O)c3cccn3c3cccnc32)cc1
COCCCNc1nc2c(-c3ccccc3)nnn2c2ccccc12
O=C(NCCC1=CCCCC1)c1ccc2c(c1)N(Cc1ccc(F)cc1)C(=O)c1ccccc1S2(=O)=O
CCOC(=O)c1c(C)sc(-c2c(-c3ccc4c(c3)OCCO4)[nH]c3c2c(=O)[nH]c(=O)n3C)c1O
COc1ccc(NC(=O)C2(c3cccs3)CCOCC2)cc1Cl
CC(C)CN(CCCNC(=O)CN1C(=O)COc2ccc(S(=O)(=O)N3CCCCCC3)cc21)CC(C)C
COc1ccc(N2CC3=C(C2=O)C(c2ccc(Br)cc2)NC(=O)N3C)cc1 (stereo not drawn)
COc1cccc(-n2c(=O)c3sc4ccccc4c3n(CC(=O)Nc3ccc(F)cc3F)c2=O)c1
CCOc1ccc(S(=O)(=O)N2CCN(c3ccc(Cl)c(Cl)c3)CC2)c2ccccc12
COc1ccccc1CNC(=O)CN1C(=O)CSc2ccc(S(=O)(=O)N(C)C)cc21
CCc1nc2cccnc2n1-c1ccc(CC(=O)Nc2ccc(C)cc2)cc1
CCn1nc(-c2ccccc2)c(-c2ccccc2)c(C(=O)Nc2nc(C)c(C(=O)N(C)C)s2)c1=O
Cc1ccc(C)c(NC(=O)CSc2ncc3c(n2)-c2ccc(Cl)cc2N(C)S3(=O)=O)c1
COc1ccc(NC(=O)CC2C(=O)N(c3ccc(C)cc3)C(=O)N2C2CCCCC2)cc1 (stereo not drawn)
Cc1cc(C)cc(NC(=O)CCc2nnc3n(CC(C)C)c(=O)c4ccccc4n23)c1
CC(C)Cc1nn2c(=O)cc(COC(=O)c3ccc4c(c3)OCO4)nc2s1
